About 800 (1.6%) of roughly 50,000 compounds showed an effect of 50% or more. Some of the results follow.
target: Bcl-2-like protein 10 (Homo sapiens) (UniProt Q9HD36); test: TR3 peptide-Bcl-B binding displacers, biochemical primary FP assay, phenotype converters (AID 1240); conditions: GST-Bcl-B / FITC-TR3 peptide fluorescence polarization; stronger effect = higher value; compound at 3.75 mg/L;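 also: 0% = Bcl-B with tracer peptide and DMSO and 100% = tracer peptide lacking Bcl-B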
Sequence of UniProt Q9HD36 (Q9HD36 whole entry, looked up): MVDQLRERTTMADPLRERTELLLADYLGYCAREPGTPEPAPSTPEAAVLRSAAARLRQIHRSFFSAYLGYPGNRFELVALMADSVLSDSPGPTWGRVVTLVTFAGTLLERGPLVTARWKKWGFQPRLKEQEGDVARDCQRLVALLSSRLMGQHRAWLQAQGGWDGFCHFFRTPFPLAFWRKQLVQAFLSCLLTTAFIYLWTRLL

| Compound | displacement [%] |
| --- | --- |
| Cc1ccc2nc3[nH]c(=O)[nH]c(=O)c3nc2c1 | 2.7 |
| Cc1ccccc1C(=O)Nc1ccc(-c2ccc([N+](=O)[O-])cc2)cc1 | 1.5 |
| COc1ccc(OC)c(/C=N\NC(=O)CNc2ccc(C)cc2)c1 | 5.1 |
| O=C(NCc1ccccc1Cl)C1CC(=O)N(c2cccc([N+](=O)[O-])c2)C1 (stereo unspecified) | -9.6 |
| O=C(COc1ccc(Cl)cc1Br)N1CCN(c2ccccn2)CC1 | 5.3 |
| COC(=O)/C(C#N)=C\c1ccc(OC)cc1 | -8.7 |
| CCOC(=O)c1c(NC(C)=O)sc(I)c1-c1ccccc1 | 0.8 |
| Cc1nc2c(C)cccc2c2c1CC(C)O2 (stereo unspecified) | 31.8 |
| Cc1cc(NS(=O)(=O)c2ccc(Nc3nc(-c4ccccc4)cs3)cc2)no1 | 10.4 |
| O=C(CN(c1ccc(F)cc1)S(=O)(=O)c1ccccc1)N1CCN(c2ccccc2)CC1 | -7.5 |
| Cc1ccc(NC(=O)/C=C\C(=O)O)c(C)c1 | 14.1 |
| CC1(C)CC(=O)C(C=Nc2ccc(S(N)(=O)=O)cc2)=C(O)C1 | 5.2 |
| Cc1ccc([N+](=O)[O-])cc1NC(=O)COc1ccc(Cl)cc1C | 2.5 |
| CC(=O)Nc1ccc(NC(=S)Nc2ccc(F)cc2)cc1 | -0.5 |
| Cc1ccc(-n2nc3cc(C)c(NC(=O)c4cc(Cl)ccc4Cl)cc3n2)cc1 | -4.7 |
| Cc1c(OCc2ccccc2F)ccc2c3c(c(=O)oc12)CCCC3 | -3.9 |
| Cn1c2nc(-[n+]3ccccc3)nc-2c([O-])n(C)c1=O | -0.3 |
| Cc1ccccc1N(CC(=O)NCc1ccccn1)S(C)(=O)=O | -9 |
| Cc1cccc(NC(=O)C(C)Oc2ccccc2)c1C (stereo unspecified) | -5 |
| Cc1ccc(NC(=O)C(=O)NCc2ccccc2Cl)c(C)c1 | 6.1 |
| S=C1NC(c2cccs2)=CC(c2ccc(Br)cc2)N1 (stereo unspecified) | -4 |
| O=C1/C(=C\c2ccc(O)c(O)c2)SC(=S)N1c1ccc(F)cc1 | 17.8 |
| CC(NC(=O)c1cnn(-c2ccccc2)c1NC(=O)c1ccccc1)c1ccccc1 (stereo unspecified) | -11.6 |

| Compound | displacement [%] |
| --- | --- |
| COc1ccc(OCC(=O)Nc2cccc(C(C)=O)c2)cc1 | 9.4 |
| CC/C(=N/O)c1ccc(CCCC(=O)O)s1 | 2.1 |
| Cc1occc1C(=O)Nc1ccc(F)cc1F | 0.3 |
| O=C(O)c1ccc(CS(=O)(=O)c2ccc(Br)cc2)cc1 | -5.2 |
| COc1cccc(/C=N/NC(=O)CSCC(=O)Nc2ccccc2)c1O | -24.4 |
| CSc1ccc(C2Nc3ccc4ccccc4c3C3=C2C(=O)CC(C)(C)C3)cc1 (stereo unspecified) | -3 |
| O=C(NC(=S)Nc1cccc(F)c1)c1ccccc1 | 4.2 |
| CCc1ccc2[nH]cc(C(=O)O)c(=O)c2c1 | -9 |
| O=C1c2ccccc2NC(c2ccccc2)N1Cc1ccccc1 (stereo unspecified) | 15.9 |
| CCc1ccccc1NC(=O)c1c(NC(=O)c2ccccc2)sc2c1CCC2 | -15.6 |
| OCCN(C(=S)Nc1ccc2nccnc2c1)c1ccccc1 | 14.9 |
| COc1ccc(C2c3cc(OC)c(OC)cc3CC(=O)N2c2ccc(OC)cc2)cc1 (stereo unspecified) | 6.4 |
| CCc1ccc(N2N=C(C)/C(=C\c3ccc(-c4ccc5c(c4)C(=O)NC5=O)o3)C2=O)cc1 | 3.8 |
| COc1cccc(C2C(C(=O)OCc3ccccc3)=C(C)NC3=C2C(=O)CCC3)c1OC (stereo unspecified) | 10 |
| Cc1ccc(-n2c(C)cc(/C=N/NC(=O)c3ccncc3)c2C)cc1C | -22.4 |
| NC(=O)c1ccccc1NC(=O)Cc1ccc(Cl)cc1 | -10.9 |
| CCOc1ccc(NC(=O)CSc2nc3ccc(OCC)cc3s2)cc1 | 11.9 |
| CCc1ccc2oc(-c3cccc(NC(=O)c4ccc(C)c([N+](=O)[O-])c4)c3)nc2c1 | 3.4 |
| CCOc1ccc(C2/C(=C(\O)c3ccccc3)C(=O)C(=O)N2CCOC)cc1 (stereo unspecified) | -12.5 |
| C=C(C)CNC(=S)Nc1ccccn1 | 3.9 |
| COc1ccc(Br)cc1/C=C/C(=O)c1cccs1 | 1.4 |
| COc1cc(F)ccc1S(=O)(=O)n1cnc2cc([N+](=O)[O-])ccc21 | 0.4 |
| Cc1ccc(CNC(=O)CCC(=O)Nc2cc(Cl)ccc2C)cc1 | -14.3 |

| Compound | displacement [%] |
| --- | --- |
| O=C(CCC(=O)OCCCC(F)(F)C(F)(F)F)Nc1ccccc1 | 13.7 |
| C=CCc1cccc2cc(C(=O)OCC(=O)c3ccccc3)c(=O)oc12 | 8.3 |
| CCOC(=O)c1ccc(N2NC(=O)/C(=C/c3ccc(Br)cc3)C2=O)cc1 | -8.5 |
| Cc1ccc(C)c(N2C(=O)C3C(C2=O)C2C=CC3C23CC3)c1 (stereo unspecified) | 7.9 |
| Nc1ccc2nn(-c3ccc(Cl)cc3)nc2c1 | 11.2 |
| OC(COc1cccc(Cl)c1)Cn1cnc2ccccc21 (stereo unspecified) | -4.1 |
| Cc1ccccc1NC(=O)C(=O)NCc1ccc(F)cc1 | 1.9 |
| O=C(COc1ccc(Br)cc1)Nc1ccc(N2CCOCC2)c(Cl)c1 | -4.7 |
| O=C(Nc1ccc(Br)cc1)c1ccc(S(=O)(=O)N2CCCC2)cc1 | 16.2 |
| CC1=NN(c2ccc(S(N)(=O)=O)cc2)C(=O)/C1=C\c1ccccc1OCc1ccccc1 | -2.3 |
| CCOc1ccccc1NC(=O)C1C2C3CCC(C3)C12 (stereo unspecified) | -5.8 |
| CCN(CC)CCCCOc1ccc(C)cc1Cl | -3.3 |
| Cc1c(OCC(=O)c2ccc(F)cc2)ccc2c3c(c(=O)oc12)CCCC3 | -5.8 |
| COc1ccc(-c2cc(=O)n3[nH]c(-c4cccc(C)c4)cc3n2)cc1 | 6.4 |
| CCOc1cccc(C2C(C(=O)OC)=C(C)N(C)C(C)=C2C(=O)OC)c1 | -10.1 |
| COc1ccc(/C=C/C(=O)c2cccc(Br)c2)cc1OC | -5.8 |
| O=C1CSC(=S)N1/N=C/c1ccc(Cl)cc1Cl | -38.1 |
| COc1cc(C)c(CNc2cccc(C)c2)cc1C | 10 |
| COc1ccc(CC(=O)NCC2CCCO2)cc1OC (stereo unspecified) | 12.7 |
| O=C1CCCCC1Oc1ccc2c3c(c(=O)oc2c1)CCC3 (stereo unspecified) | -4.5 |
| CCOC(=O)C1=C(C)NC2=C(C(=O)c3ccccc32)C1c1ccc([N+](=O)[O-])cc1 (stereo unspecified) | -2.3 |
| Cc1ccc(C)c(OCC(O)CN2CCC(Cc3ccccc3)CC2)c1 (stereo unspecified) | -8 |
| COc1cccc(NC(=O)C2C(c3ccccc3)=C2c2ccccc2)c1 | 0.9 |

| Compound | displacement [%] |
| --- | --- |
| COc1ccc(-c2nc3ccccc3c(C(=O)N3CCOCC3)c2C)cc1 | -3.3 |
| Cc1ccc(C(=O)c2cccc(NC(=O)/C=C/c3ccco3)c2)cc1C | 3.2 |
| O=C(/C=C/Nc1ccccc1NS(=O)(=O)c1ccccc1)c1ccc2c(c1)OCO2 | 7.3 |
| CCOc1ccc(N(CC(=O)NC2CCCCC2)S(C)(=O)=O)cc1 | -9 |
| COC(=O)C1=CN(CCc2ccccc2)C=C(C(=O)OC)C1c1ccc(OC)c(OC)c1 | 0 |
| CCSc1nnc(NC(=O)c2c(OC)cccc2OC)s1 | -3.7 |
| C=CCN1C(=O)C(Cc2cccc(C)c2)SC1=Nc1ccc(C(=O)O)cc1 (stereo unspecified) | -10.4 |
| CCOC(=O)c1ccc(N/C(N)=N/c2nc(C(F)(F)F)cc(=O)[nH]2)cc1 | -1.2 |
| COC(=O)c1c(NC(=O)C(F)(F)F)sc(Cc2ccccc2)c1C | -2.8 |
| O=C(O)c1ccc(NS(=O)(=O)c2cccc3cccnc23)cc1O | -4 |
| Cc1cc(C)cc(OCC(=O)N2CCN(c3ccccc3)CC2)c1 | 3.8 |
| O=C(CSc1nnnn1-c1ccccc1)Nc1ccc2nc(SCc3ccccc3)sc2c1 | 2.3 |
| O=C1C(=O)N(CC2CCCO2)C(c2ccc(Br)cc2)/C1=C(/O)c1ccccc1 (stereo unspecified) | -16.7 |
| O=S(=O)(N/N=C/c1ccccc1O)c1ccc(Oc2ccc(S(=O)(=O)N/N=C/c3ccccc3O)cc2)cc1 | 0.5 |
| O=C1C=CC(=O)N1c1ccc(N2CCCCC2)cc1 | 1 |
| O=C(Nc1ccc(Cl)cc1Cl)C1CC(=O)N(c2ccc(Br)cc2)C1 (stereo unspecified) | 10 |
| O=[N+]([O-])c1ccc(Cl)c(-n2ncnc2-c2cccc(Cl)c2)c1 | -5.3 |
| O=C1OC(c2ccccc2I)=N/C1=C\c1cccc([N+](=O)[O-])c1 | -4 |
| O=C(O)c1cccc([N+](=O)[O-])c1C(=O)Nc1nc2ccccc2s1 | 6.7 |
| O=C(/C=C/c1ccccc1)n1nnc2ccccc21 | 6.5 |
| O=S(=O)(Oc1ccccc1)c1cc(Cl)ccc1Cl | 10.8 |
| Cc1ccc(C(C)C)c(OCC(=O)N2CCN(c3ccc([N+](=O)[O-])cc3Cl)CC2)c1 | 2.7 |
| CCOc1cc(/C=C2/SC(=S)N(C)C2=O)cc(Cl)c1OCCOc1ccc(Br)cc1 | 2.8 |

| Compound | displacement [%] |
| --- | --- |
| CCc1ccccc1NS(=O)(=O)c1ccc(OC)c(OC)c1 | 9 |
| COC(=O)C1=NNC2C(=O)N(c3ccccc3Br)C(=O)C12 (stereo unspecified) | 3.1 |
| CC1CCN(Cc2c(O)ccc3ccccc23)CC1 | 10.1 |
| COc1ccc(C2CC(=O)C3=C(C2)Nc2ccccc2NC3c2ccccc2OC(C)C)cc1 (stereo unspecified) | -7.7 |
| COc1ccc(N2C(=O)C3C4C=CC(CC4)C3C2=O)cc1 (stereo unspecified) | 3.9 |
| CN(C)CCNC(=O)C(c1ccccc1)c1ccccc1 | 11.4 |
| CCCOc1ccccc1C1C(C(=O)OCC)=C(C)NC2=C1C(=O)CC(c1ccc(Cl)cc1)C2 (stereo unspecified) | -5.3 |
| CCN(CC)c1ccc(C(NC(C)=O)NC(C)=O)cc1 | 15.6 |
| O=C(Nc1cc(-c2ccc(F)cc2)[nH]n1)c1cccs1 | 8.8 |
| COC(=O)c1c(C)oc2ccc(OCc3ccccc3Cl)cc12 | 9.4 |
| CC(c1ccco1)N(C(=O)c1ccc([N+](=O)[O-])cc1)c1ccccn1 (stereo unspecified) | 4.5 |
| O=C1NC(=S)S/C1=C/c1ccc(-c2ccc(C(=O)O)c(Cl)c2)o1 | -138 |
| CCOC(=O)C(CCOCCOc1c(C)cc(Cl)cc1C)C(=O)OCC | -9.7 |
| O=C(Nc1c[nH]c(=O)[nH]c1=O)c1ccc(Cl)c(Cl)c1 | 5.6 |
| CCCC1=C(C(=O)OCC)C(c2ccccc2Cl)NC(=O)N1 (stereo unspecified) | 5.6 |
| O=C(Nc1ccc(S(=O)(=O)Nc2ncccn2)cc1)c1cccc(Br)c1 | 17.4 |
| O=C(O)C(Cc1ccccc1)N=C(NS(=O)(=O)c1ccccc1)c1ccccc1 (stereo unspecified) | -2.1 |
| Cc1ccc(N(CC(=O)NC2CCCC2)S(=O)(=O)c2ccc(F)cc2)cc1 | 1.4 |
| Cc1cccn2c(=O)c(/C=C3\SC(=S)N(CC4CCCO4)C3=O)c(NCCCn3ccnc3)nc12 (stereo unspecified) | 3.5 |
